The IC50 comes from the fitted curve, where viability falls to half of the control; where the fit passes the top or lowest dose, that dose stands as a limit. AUC is the area under the same curve over the 256-fold range up to the top dose, as a fraction; values near 1 show little effect. For some assays here: Any top dose called inferred was derived from the fitted curves, not read from the paper. For some assays here: Drugs with an entry number were screened twice under separate entries, and the two screens often disagree.
What was measured:
Assay in all cases: Viability of human cancer cell lines after 72 h of drug (GDSC screen)
[1] = compound: CC/C(=C(\c1ccccc1)c1ccc(OCCN(C)C)cc1)c1ccccc1 [Tamoxifen]; settings: top dose 5 µM
Description: (§1)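 Human cancer cell lines in 384-well plates, medium with 10% serum, drug for 72 h over a 256-fold dose range (nine 2-fold or five 4-fold steps up to the top dose). Adherent lines were fixed and stained with the nucleic acid dye Syto60, suspension lines read with resazurin; signal relative to control wells, capped at 0 and 100%. One two-parameter sigmoid per drug and line, fitted in a mixed model over all curves with the slope shared within a line.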

[2] = compound: CCCC(=O)OCc1ccc(OC(=O)/C=C(C)/C=C/C=C(C)/C=C/C2=C(C)CCCC2(C)C)cc1 [VNLG/124]; settings: top dose 5.12 µM; top dose inferred
Description: as §1

[3] = compound: CN(NC(=O)CC(=O)NN(C)C(=S)c1ccccc1)C(=S)c1ccccc1 [Elesclomol]; settings: top dose 0.2 µM; top dose inferred
Description: as §1

[4] = compound: COc1cc(N2CCC(C(N)=O)CC2)ccc1Nc1nc(N)c(Cl)c(Nc2ccccc2S(=O)(=O)C(C)C)n1 [HG-5-88-01]; settings: top dose 10 µM; top dose inferred
Description: as §1

[5] = compound: Cc1c(N)nc([C@H](CC(N)=O)NC[C@H](N)C(N)=O)nc1C(=O)N[C@H](C(=O)N[C@H](C)[C@@H](O)[C@H](C)C(=O)N[C@H](C(=O)NCCc1nc(-c2nc(C(=O)NCCC[S+](C)C)cs2)cs1)[C@@H](C)O)[C@@H](OC1OC(CO)C(O)C(O)C1OC1OC(CO)C(O)C(OC(N)=O)C1O)c1cnc[nH]1 [Bleomycin]
Description: as §1

[6] = compound: Cc1ccc(NC(=O)c2ccc(CN3CCN(C)CC3)cc2)cc1Nc1nc(-c2cccnc2)cs1 [Masitinib]; settings: top dose 20 µM
Description: as §1

[7] = compound: O=C(/C=C/c1ccc(CN(CCO)CCc2c[nH]c3ccccc23)cc1)NO [LAQ824]; settings: top dose 1.024 µM; top dose inferred
Description: as §1

[8] = compound: O=C(Nc1ccc(OC(F)(F)F)cc1)c1sccc1NCc1ccnc2ccccc12 [OSI-930]; settings: top dose 10.24 µM
Description: as §1

[9] = compound: O=C(Nc1cccc(Nc2ncc(Br)c(NCCc3cnc[nH]3)n2)c1)N1CCCC1 [BX-912]; settings: top dose 10.24 µM; top dose inferred
Description: as §1

[10] = compound: O=S(=O)(O)c1ccc2cc(N=Nc3cc(S(=O)(=O)O)c4cccnc4c3O)ccc2c1 [NSC-87877]; settings: top dose 16 µM; top dose inferred
Description: as §1

[11] = top dose 50 µM, screen: GDSC drug entry 1378, top dose inferred
[12] = top dose 64 µM, screen: GDSC drug entry 190

Cell Line | AUC [1] | IC50 [1] [µM] | AUC [2] | IC50 [2] [µM] | AUC [3] | IC50 [3] [µM] | AUC [4] | IC50 [4] [µM] | AUC [5, 11] | IC50 [5, 11] [µM] | AUC [5, 12] | IC50 [5, 12] [µM] | AUC [6] | IC50 [6] [µM] | AUC [7] | IC50 [7] [µM] | AUC [8] | IC50 [8] [µM] | AUC [9] | IC50 [9] [µM] | AUC [10] | IC50 [10] [µM]
8-MG-BA (glioma, adherent) | 0.901 | > 5 | 0.964 | > 5.12 | 0.464 | 0.0101 | 0.927 | > 10 | 0.308 | 0.943 | 0.327 | 1.37 | 0.867 | 16.2 | 0.488 | 0.0596 | 0.93 | > 10.2 | 0.896 | > 10.2 | 0.975 | > 16
22RV1 (prostate, adherent) | 0.958 | > 5 | 0.969 | > 5.12 | 0.508 | 0.0132 | 0.884 | > 10 | 0.859 | > 50 | 0.577 | 6.84 | 0.941 | > 20 | 0.326 | 0.0185 | 0.977 | > 10.2 | 0.969 | > 10.2 | 0.979 | > 16
639-V (bladder, adherent) | 0.99 | > 5 | 0.988 | > 5.12 | 0.386 | 0.00639 | 0.988 | > 10 | 0.318 | 1.06 | 0.111 | 0.298 | 0.986 | > 20 | 0.42 | 0.0402 | 0.978 | > 10.2 | 0.987 | > 10.2 | 0.896 | 14.5
8305C (thyroid, adherent) | 0.958 | > 5 | 0.978 | > 5.12 | 0.77 | 0.0997 | 0.89 | > 10 | 0.792 | 30.9 | 0.239 | 0.544 | 0.973 | > 20 | 0.374 | 0.0258 | 0.977 | > 10.2 | 0.904 | > 10.2 | 0.957 | > 16
8505C (thyroid, adherent) | 0.983 | > 5 | 0.912 | > 5.12 | 0.423 | 0.00759 | 0.954 | > 10 | 0.289 | 0.761 | 0.377 | 1.79 | 0.91 | > 20 | 0.317 | 0.019 | 0.985 | > 10.2 | 0.816 | 6.12 | 0.984 | > 16
A101D (melanoma, adherent) | 0.886 | > 5 | 0.98 | > 5.12 | 0.57 | 0.0203 | 0.915 | > 10 | 0.506 | 3.26 | 0.254 | 0.658 | 0.97 | > 20 | 0.443 | 0.0433 | 0.98 | > 10.2 | 0.892 | > 10.2 | 0.975 | > 16
A253 (head and neck, adherent) | 0.988 | > 5 | 0.985 | > 5.12 | 0.581 | 0.0207 | 0.97 | > 10 | 0.158 | 0.288 | 0.443 | 2.8 | 0.902 | > 20 | 0.686 | 0.208 | 0.987 | > 10.2 | 0.941 | > 10.2 | 0.973 | > 16
A388 (skin, adherent) | 0.964 | > 5 | 0.978 | > 5.12 | 0.474 | 0.0105 | 0.957 | > 10 | 0.515 | 3.45 | 0.271 | 0.8 | 0.928 | > 20 | 0.508 | 0.0673 | 0.956 | > 10.2 | 0.901 | > 10.2 | 0.983 | > 16
A427 (non-small cell lung carcinoma, adherent) | 0.962 | > 5 | 0.987 | > 5.12 | 0.373 | 0.00555 | 0.985 | > 10 | 0.483 | 2.81 | 0.033 | < 0.25 | 0.955 | > 20 | 0.459 | 0.0493 | 0.957 | > 10.2 | 0.906 | > 10.2 | 0.987 | > 16
ABC-1 (lung adenocarcinoma, adherent) | 0.943 | > 5 | 0.958 | > 5.12 | 0.157 | 0.000833 | 0.829 | 8.02 | 0.731 | 16.5 | 0.747 | 24.1 | 0.839 | 17.8 | 0.407 | 0.0337 | 0.912 | > 10.2 | 0.762 | 4.37 | 0.982 | > 16
ALL-PO (lymphoblastic leukaemia, suspension) | 0.968 | > 5 | 0.859 | 4.65 | 0.365 | 0.00519 | 0.879 | > 10 | 0.94 | > 50 | 0.304 | 1.09 | 0.871 | > 20 | 0.178 | 0.00634 | 0.906 | > 10.2 | 0.101 | < 0.04 | 0.983 | > 16
